Binding signal data for 34 sequences are collected here from article PMC12820563, “FoxP3 forms a head-to-head dimer in vivo and stabilizes its multimerization on adjacent microsatellites”.

The list shows a part of the results.

The target of the experiment is T1, MBP-FoxP1dN (Mus musculus, UniProt P58462 326-579).
T1 sequence: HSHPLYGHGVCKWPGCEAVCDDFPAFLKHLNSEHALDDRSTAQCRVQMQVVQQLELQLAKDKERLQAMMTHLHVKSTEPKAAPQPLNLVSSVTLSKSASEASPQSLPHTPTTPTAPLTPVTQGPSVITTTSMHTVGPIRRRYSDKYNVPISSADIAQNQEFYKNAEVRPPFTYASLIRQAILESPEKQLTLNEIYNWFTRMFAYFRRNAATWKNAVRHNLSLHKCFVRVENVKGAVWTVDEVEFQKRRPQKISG
Description: PD-seq (MBP pull-down with sequencing); 20 mM Tris-HCl pH 7.5, 100 mM NaCl, 1.5 mM MgCl2, 0.4 uM protein, 0.1 uM dsDNA library, 30 min, room temperature, amylose pull-down; high values mean tight binding. The following applies: protein: recombinant; tags: His6-MBP; chain copies: 2; dsDNA, one strand shown. Summed up: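 Mouse FoxP3 or FoxP1 fragment lacking the N-terminus, His6-MBP-tagged and expressed in E. coli, was incubated at 0.4 µM with 0.1 µM Klenow-filled degenerate double-stranded DNA library for 30 min at room temperature in Tris pH 7.5 buffer with NaCl and MgCl2. Complexes captured on amylose resin were washed three times and their DNA sequenced on Illumina. Binding is reads-per-million enrichment of pull-down over input, replicates pooled.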
On to “GATGATTGTTCTCCCAGCTGATGAATTCTGAAGGTCGAGTAAACAAATTTTCCTAATCTTTCTGTTCAAGCGCCATCTAC”, for which the binding signal was 0.736 RPM ratio (pull-down/input).

As to “GATGATTGTTCTCCCAGCTGATGAATTAGCCCGATCGAGTAAACAAATTTTCCTAATCTTTCTGTTCAAGCGCCATCTAC”, the binding signal was 0.777 RPM ratio (pull-down/input).

As to “GATGATTGTTCTCCCAGCTGATGAATTTCAGTGGTCGAGTAAACAAATTTTCCTAATCTTTCTGTTCAAGCGCCATCTAC”, the binding signal is 0.767 RPM ratio (pull-down/input). For the sequence “GATGATTGTTCTCCCAGCTGATGAATTTACTACCTCGAGTAAACAAATTTTCCTAATCTTTCTGTTCAAGCGCCATCTAC”, the binding signal was 1.25 RPM ratio (pull-down/input). Consider “GATGATTGTTCTCCCAGCTGATGAATTTCTCACCTCGAGTAAACAAATTTTCCTAATCTTTCTGTTCAAGCGCCATCTAC”, for which the binding signal was 0.872 RPM ratio (pull-down/input). In the case of “GATGATTGTTCTCCCAGCTGATGAATTACCAAACTCGAGTAAACAAATTTTCCTAATCTTTCTGTTCAAGCGCCATCTAC”, the binding signal was 1.1 RPM ratio (pull-down/input). To “GATGATTGTTCTCCCAGCTGATGAATTGAAGGCTTCGAGTAAACAAATTTTCCTAATCTTTCTGTTCAAGCGCCATCTAC” belongs 0.87 RPM ratio (pull-down/input); to “GATGATTGTTCTCCCAGCTGATGAATTTTAAATATCGAGTAAACAAATTTTCCTAATCTTTCTGTTCAAGCGCCATCTAC”, 1.15 RPM ratio (pull-down/input).

On to “GATGATTGTTCTCCCAGCTGATGAATTATTGCCATCGAGTAAACAAATTTTCCTAATCTTTCTGTTCAAGCGCCATCTAC”, for which the binding signal is 1.24 RPM ratio (pull-down/input). As for “GATGATTGTTCTCCCAGCTGATGAATTGCCTAGTTCGAGTAAACAAATTTTCCTAATCTTTCTGTTCAAGCGCCATCTAC”, the binding signal is 0.959 RPM ratio (pull-down/input). The figure for “GATGATTGTTCTCCCAGCTGATGAATTCGCCTGATCGAGTAAACAAATTTTCCTAATCTTTCTGTTCAAGCGCCATCTAC” is 0.834 RPM ratio (pull-down/input).

On to “GATGATTGTTCTCCCAGCTGATGAATTTACCTAGTCGAGTAAACAAATTTTCCTAATCTTTCTGTTCAAGCGCCATCTAC”, for which the binding signal was 1.19 RPM ratio (pull-down/input). The figure for “GATGATTGTTCTCCCAGCTGATGAATTGGATTGCTCGAGTAAACAAATTTTCCTAATCTTTCTGTTCAAGCGCCATCTAC” is 0.916 RPM ratio (pull-down/input); for “GATGATTGTTCTCCCAGCTGATGAATTCTTTCCTTCGAGTAAACAAATTTTCCTAATCTTTCTGTTCAAGCGCCATCTAC” it is 0.851 RPM ratio (pull-down/input). Consider “GATGATTGTTCTCCCAGCTGATGAATTCCAGTCGTCGAGTAAACAAATTTTCCTAATCTTTCTGTTCAAGCGCCATCTAC”, for which the binding signal was 0.795 RPM ratio (pull-down/input). The figure for “GATGATTGTTCTCCCAGCTGATGAATTCCGTGAATCGAGTAAACAAATTTTCCTAATCTTTCTGTTCAAGCGCCATCTAC” is 0.874 RPM ratio (pull-down/input).

Consider “GATGATTGTTCTCCCAGCTGATGAATTAGTTGTTTCGAGTAAACAAATTTTCCTAATCTTTCTGTTCAAGCGCCATCTAC”, for which the binding signal was 1.65 RPM ratio (pull-down/input).

On to “GATGATTGTTCTCCCAGCTGATGAATTACTAGATTCGAGTAAACAAATTTTCCTAATCTTTCTGTTCAAGCGCCATCTAC”, for which the binding signal is 1.03 RPM ratio (pull-down/input). The figure for “GATGATTGTTCTCCCAGCTGATGAATTATTGAAATCGAGTAAACAAATTTTCCTAATCTTTCTGTTCAAGCGCCATCTAC” is 1.23 RPM ratio (pull-down/input); for “GATGATTGTTCTCCCAGCTGATGAATTAGTCCCATCGAGTAAACAAATTTTCCTAATCTTTCTGTTCAAGCGCCATCTAC” it is 0.983 RPM ratio (pull-down/input); for “GATGATTGTTCTCCCAGCTGATGAATTCTTCCGTTCGAGTAAACAAATTTTCCTAATCTTTCTGTTCAAGCGCCATCTAC” it is 0.866 RPM ratio (pull-down/input). “GATGATTGTTCTCCCAGCTGATGAATTATACCGATCGAGTAAACAAATTTTCCTAATCTTTCTGTTCAAGCGCCATCTAC”: the binding signal is 0.975 RPM ratio (pull-down/input). Regarding “GATGATTGTTCTCCCAGCTGATGAATTTTAGAGCTCGAGTAAACAAATTTTCCTAATCTTTCTGTTCAAGCGCCATCTAC”, the binding signal was 0.77 RPM ratio (pull-down/input).

Regarding “GATGATTGTTCTCCCAGCTGATGAATTCACTCAATCGAGTAAACAAATTTTCCTAATCTTTCTGTTCAAGCGCCATCTAC”, the binding signal was 0.995 RPM ratio (pull-down/input).

On to “GATGATTGTTCTCCCAGCTGATGAATTACAGAAATCGAGTAAACAAATTTTCCTAATCTTTCTGTTCAAGCGCCATCTAC”, for which the binding signal is 1.38 RPM ratio (pull-down/input). To “GATGATTGTTCTCCCAGCTGATGAATTGGCTGCCTCGAGTAAACAAATTTTCCTAATCTTTCTGTTCAAGCGCCATCTAC” belongs 0.876 RPM ratio (pull-down/input); to “GATGATTGTTCTCCCAGCTGATGAATTCTTTCAGTCGAGTAAACAAATTTTCCTAATCTTTCTGTTCAAGCGCCATCTAC”, 0.903 RPM ratio (pull-down/input).

“GATGATTGTTCTCCCAGCTGATGAATTTCCGTCGTCGAGTAAACAAATTTTCCTAATCTTTCTGTTCAAGCGCCATCTAC”: the binding signal was 0.841 RPM ratio (pull-down/input). For “GATGATTGTTCTCCCAGCTGATGAATTTATAATGTCGAGTAAACAAATTTTCCTAATCTTTCTGTTCAAGCGCCATCTAC”, the binding signal was 1.25 RPM ratio (pull-down/input).

Turning to “GATGATTGTTCTCCCAGCTGATGAATTAAATTAATCGAGTAAACAAATTTTCCTAATCTTTCTGTTCAAGCGCCATCTAC”, the binding signal was 1.01 RPM ratio (pull-down/input). Take “GATGATTGTTCTCCCAGCTGATGAATTGATAGCTTCGAGTAAACAAATTTTCCTAATCTTTCTGTTCAAGCGCCATCTAC”: the binding signal was 0.923 RPM ratio (pull-down/input). To “GATGATTGTTCTCCCAGCTGATGAATTTCCGCTATCGAGTAAACAAATTTTCCTAATCTTTCTGTTCAAGCGCCATCTAC” belongs 0.974 RPM ratio (pull-down/input); to “GATGATTGTTCTCCCAGCTGATGAATTAGTCAACTCGAGTAAACAAATTTTCCTAATCTTTCTGTTCAAGCGCCATCTAC”, 1.17 RPM ratio (pull-down/input). The figure for “GATGATTGTTCTCCCAGCTGATGAATTTGAAAGTTCGAGTAAACAAATTTTCCTAATCTTTCTGTTCAAGCGCCATCTAC” is 0.892 RPM ratio (pull-down/input).
